Assay results: the supplement of paper PMC10126150
Sequences with one replicate were seen in a single cluster, so their values are uncertain.

The sequences below were run on ATP (assay: switch fluorescence ratio, 500 uM ATP over buffer (Cy3 cluster intensity, sum of 5 cycles each) (fold (ratio)); higher = stronger signal-on switching upon ATP binding; sequences stand for … in TCGTCGGCAGCGTCAGATGTGTATAAGAGACAGTTTTTTTTTTTTTTTTTTTTTTTTT…TC). Conditions: aptamer strand: ATP DNA aptamer (quencher-CACCTGGGGGAGTATTGCGGAGGAAGG + anchor), 100 nM annealed; ATP concentration: 500 uM; one replicate.
Method in brief: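 Switching-strand clusters labelled with Cy3 on a modified Illumina MiSeq flow-cell were annealed to 100 nM quencher-labelled ATP aptamer, imaged in selection buffer, and re-imaged after 15 min with 500 uM ATP at 22 °C. This was done over five cycles with NaOH stripping and re-annealing in between. The fluorescence ratio is summed target-cycle over summed buffer-cycle Cy3 intensity per cluster, averaged per switch-domain sequence, excluding clusters outside 100-1000 RFU.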
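Note: ATP exposure 15 min at 22 °C before imaging.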

Row | Sequence | switch fluorescence ratio
1 | GAGCCACTAC | 1.65
2 | GAGCCAGGGT | 1.03
3 | GAGCCTAGCG | 1.04
4 | GAGCGAGGTC | 0.989
5 | GAGCGATGCG | 1.26
6 | GAGCGCATAG | 1.7
7 | GAGCGCTAGA | 1.04
8 | GAGCGGCAG | 0.99
9 | GAGCGGCAGT | 1.02
10 | GAGCGTTAGT | 1.01
11 | GAGCTAATGT | 1.02
12 | GAGCTAGACT | 1.5
13 | GAGCTAGTCG | 0.921
14 | GAGCTGGAAA | 1.02
15 | GAGCTGTGGA | 1.03
16 | GAGCTTCGT | 1.01
17 | GAGCTTGGT | 0.97
18 | GAGGAAAGTC | 0.974
19 | GAGGAAGGTG | 1.42
20 | GAGGACAGCG | 1.06
21 | GAGGATCACC | 0.979
22 | GAGGATCGAA | 1
23 | GAGGATTATG | 1.04
24 | GAGGCACTAG | 1.29
25 | GAGGCATGAG | 1.1
26 | GAGGCCTAGC | 0.963

Row | Sequence | switch fluorescence ratio
27 | GAGGCCTGTT | 1.5
28 | GAGGCGAGTA | 0.916
29 | GAGGCGTGTA | 1.01
30 | GAGGGAGGG | 0.934
31 | GAGGGAGTAA | 1.11
32 | GAGGGATCAA | 0.987
33 | GAGGGCCCTC | 1.02
34 | GAGGGCTCCA | 1
35 | GAGGGGAGTC | 0.989
36 | GAGGGGCCC | 0.926
37 | GAGGGGTCAC | 1.03
38 | GAGGGGTGCC | 1.09
39 | GAGGGTGGTC | 0.967
40 | GAGGGTGTGC | 1.01
41 | GAGGGTTAAA | 1.04
42 | GAGGTAGTTA | 1.03
43 | GAGGTAGTTT | 0.973
44 | GAGGTCGCG | 1.01
45 | GAGGTGAATC | 0.965
46 | GAGGTGACTT | 1.03
47 | GAGGTGGGCA | 1.08
48 | GAGGTGTTGT | 1
49 | GAGGTTACTT | 0.993
50 | GAGGTTCGGA | 1.01
51 | GAGGTTCTTG | 0.98
52 | GAGGTTTCG | 0.953

Row | Sequence | switch fluorescence ratio
53 | GAGTAAATGC | 1.17
54 | GAGTACACGA | 1.05
55 | GAGTACCAGT | 1.02
56 | GAGTATGGG | 1.01
57 | GAGTCAGGGA | 1.01
58 | GAGTCAGTTA | 1.05
59 | GAGTCGTGGG | 1.01
60 | GAGTCTACGA | 0.992
61 | GAGTGAGTG | 0.968
62 | GAGTGCAAA | 1.02
63 | GAGTGCCCAG | 1.01
64 | GAGTGCTTAC | 1.07
65 | GAGTGGTGAG | 0.989
66 | GAGTGTGCAA | 1.09
67 | GAGTGTGCCA | 1.03
68 | GAGTGTTCTC | 0.958
69 | GAGTGTTGGA | 1.01
70 | GAGTTATGAG | 0.955
71 | GAGTTGCTTG | 1.04
72 | GAGTTGGCGT | 0.98
73 | GAGTTTCCGC | 1.02
74 | GATAAAACAC | 1.03
75 | GATAAAACAT | 0.995
76 | GATAAACAAC | 1.01
77 | GATAAACCAG | 1.05
78 | GATAAAGCAG | 1.04

Row | Sequence | switch fluorescence ratio
79 | GATAAAGTTT | 0.978
80 | GATAAATAGG | 1.01
81 | GATAAATATT | 1.01
82 | GATAACTTTG | 1
83 | GATAAGGGC | 1.01
84 | GATAATCTTT | 1.02
85 | GATAATGGTG | 1
86 | GATACAGTGA | 1.01
87 | GATACGAGCT | 1.07
88 | GATACGTAAT | 1.48
89 | GATACTACGC | 1.32
90 | GATACTGCTG | 1.05
91 | GATACTGGTT | 1.02
92 | GATACTTATA | 1
93 | GATAGATACG | 1
94 | GATAGATACT | 0.996
95 | GATAGCCTTT | 1
96 | GATAGGACAA | 1.02
97 | GATAGGGAGT | 1.05
98 | GATAGGGTTA | 0.99
99 | GATAGGGTTG | 0.998
100 | GATAGGTAAA | 1.02
101 | GATAGGTGTG | 1.06
102 | GATAGTA | 0.988
103 | GATAGTCGTT | 0.998
104 | GATAGTCTAG | 0.98

Row | Sequence | switch fluorescence ratio
105 | GATAGTTCTA | 0.978
106 | GATAGTTGGA | 0.981
107 | GATATACGGG | 0.985
108 | GATATCTAGG | 1.02
109 | GATATTAGG | 1.01
110 | GATCAAACTG | 1.04
111 | GATCAAATCG | 0.96
112 | GATCAACAGC | 1.01
113 | GATCAGGCCA | 1.01
114 | GATCATAATT | 1
115 | GATCCCAGCA | 1
116 | GATCCCCAAC | 1.04
117 | GATCCCTATG | 0.992
118 | GATCCTACTT | 1.05
119 | GATCCTCTCT | 1.01
120 | GATCGAAATT | 0.984
121 | GATCGCATCA | 1.06
122 | GATCGCGTCG | 1
123 | GATCGCTAGT | 1.01
124 | GATCGGAAAA | 1.03
125 | GATCGGGAAG | 1.01
126 | GATCGGGACC | 0.979
127 | GATCGTTTCG | 0.989
128 | GATCTACCGC | 1.18
129 | GATCTAGCGA | 0.981
130 | GATCTAGCTA | 1.02

Row | Sequence | switch fluorescence ratio
131 | GATCTGGGTC | 1.03
132 | GATCTGGTGC | 1
133 | GATCTGGTGG | 1
134 | GATCTGTCTT | 0.998
135 | GATCTTATGT | 0.978
136 | GATCTTCTAT | 0.984
137 | GATCTTGACC | 1.03
138 | GATCTTGCAT | 0.972
139 | GATCTTGCGC | 0.955
140 | GATCTTTAA | 0.967
141 | GATCTTTCCA | 0.979
142 | GATGAAAACT | 1.01
143 | GATGAAGCTA | 1.02
144 | GATGAAGTG | 0.969
145 | GATGAGCCTT | 1.05
146 | GATGAGCGTA | 1.03
147 | GATGATAATG | 0.975
148 | GATGATAGTA | 1.03
149 | GATGATCTCA | 0.976
150 | GATGATTCTT | 1.03
151 | GATGATTTGA | 1
152 | GATGCCTGAA | 1.01
153 | GATGCGTTT | 0.99
154 | GATGCTCCTC | 1.08
155 | GATGGCGCTA | 0.933
156 | GATGGGACGG | 1.01

Row | Sequence | switch fluorescence ratio
157 | GATGGGATTT | 1.02
158 | GATGGGGACG | 0.907
159 | GATGGGTGGC | 0.905
160 | GATGGGTTGC | 0.971
161 | GATGGTCAGC | 0.981
162 | GATGGTCAGT | 1.01
163 | GATGGTGATA | 0.986
164 | GATGGTTACG | 0.974
165 | GATGTACGTG | 0.99
166 | GATGTAGACC | 0.982
167 | GATGTCATCG | 0.945
168 | GATGTGAAAA | 1.02
169 | GATGTGGAAC | 0.981
170 | GATGTGGCGA | 1.02
171 | GATGTGGTTA | 1.01
172 | GATGTTAATG | 0.987
173 | GATGTTATTT | 0.954
174 | GATTAAGTTG | 0.956
175 | GATTACTTTT | 1.04
176 | GATTAGATGC | 1.03
177 | GATTAGATTT | 0.98
178 | GATTAGCAGG | 1.03
179 | GATTAGTAGA | 1.02
180 | GATTCACTGG | 0.998
181 | GATTCACTTG | 1.01
182 | GATTCATCTG | 1.04

Row | Sequence | switch fluorescence ratio
183 | GATTCCCCAA | 1.01
184 | GATTCCGCGT | 1.82
185 | GATTCGGTAG | 0.971
186 | GATTCGGTTT | 0.999
187 | GATTCGTCTG | 0.996
188 | GATTCGTGTT | 0.972
189 | GATTCTAACC | 1.02
190 | GATTGACAGC | 1.11
191 | GATTGAGGTT | 0.976
192 | GATTGCAGG | 1.02
193 | GATTGCGGAT | 1.03
194 | GATTGCTGGG | 0.981
195 | GATTGGACAT | 1
196 | GATTGGAGTG | 1
197 | GATTGGCTG | 0.958
198 | GATTGGTAAG | 0.982
199 | GATTGGTG | 1
200 | GATTGTAGTC | 0.994
201 | GATTGTCATT | 0.965
